57 sequences from the supplement of paper PMC11417369 can be followed below.

± gives the standard deviation of the averaged measurements. This is one part of the list.

The test system of this experiment is PfAP2-G AP2 domain (GST-tagged). Nature of the experiment: gcPBM binding intensity (ln(normalized median fluorescence intensity)); higher = stronger DNA binding. The method, boiled down: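 An Agilent 4 × 180k array of primer-extended double-stranded 36-bp intergenic genomic probes, with negative controls, was incubated for 1 h with GST-tagged P. falciparum DNA-binding domains expressed in E. coli. Alexa488 anti-GST antibody detected bound protein, scanned at 488 nm. Binding intensity is the highest Masliner-normalised natural-log median intensity across replicate spots of either probe orientation.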
Consider “ATACATGTTTTATGTGCACACAAAGTTGTTATGAGG [CACACA_site4032]”, for which the “gcPBM binding intensity (ln)” value turned out to be 10.5 ± 0.28. The figure for “AATTATTCATAAAATGCATGTACATGGTTTAATATT [TGCATGCA_site87]” is 10.9 ± 0.57. The value for “ATAATTATATTTTATTCACACATCGTTATATAGTAA [CACACA_site4743]” was 9.94 ± 0.057. “ATAATACACAAGCACACACACACACGGATATTTATA [CACACA_site6714]”: the “gcPBM binding intensity (ln)” value is 10.3 ± 0.3. On to “AAAAAAAAAAAAAAAACACACATATAGATTATTGTA [CACACA_site7797]”, for which the “gcPBM binding intensity (ln)” value turned out to be 10.1 ± 0.11.

Regarding “TTTTAATTTATCGACACACGCATGAATAGAAATTAG [CACACA_site3361]”, the “gcPBM binding intensity (ln)” value stood at 10.2 ± 0.2. The value for “TATTTTTATTTTCCTTCACACATTTTTTATATTTTT [CACACA_site5830]” was 9.94 ± 0.17. In the case of “AGACAATATCTTATTTGTACATATGTATTCCTCATA [XGTACX_site5757]”, the “gcPBM binding intensity (ln)” value was determined as 10.9 ± 0.38. The value for “TTATAATTTAATAAATGTACATAAATAATATACATA [XGTACX_site7271]” was 11.2 ± 0.7; that for “AACACAATAAAAATTAAAAATGTTAAGTAAATATAA [GTGCAC_negctrl_site60]” was 9.65 ± 0.23. The value for “ACTTTTTTTTTTTTTTTAGATTACATAAATATAAAT [CACACA_negctrl_site139]” was 10 ± 0.25; that for “TATGTATATTTAAATGCATGTGATTATTTTTGACTT [TGCATGCA_site568]” was 9.68 ± 0.099. In the case of TTATAAATTTAAAAAGTGCATAATAATAACAAAAAG, the “gcPBM binding intensity (ln)” value amounted to 10.4 ± 0.27. On to “TCTAATGTAATGCATACACACAACTATCCATCAAAA [CACACA_site534]”, for which the “gcPBM binding intensity (ln)” value was 9.945 ± 0.007. The value for “AAAAAATAAATAAATATACACACCATATATATATTT [CACACA_site2854]” was 9.66 ± 0.16; that for “TTAACATTTTAAAAATGTACATTTATATACATAAAT [XGTACX_site922]” was 10.9 ± 0.67; that for “AGAAAAATTCTAAGAACATGCAAAAAAATAAAAAAA [TGCATGCA_site293]” was 9.915 ± 0.078. In the case of “TTTTATTTTTCTAGTAGTACTTCTTTTTATAATATA [XGTACX_site1181]”, the “gcPBM binding intensity (ln)” value was determined as 11.6 ± 0.87.

Turning to “AGTTTACACCTTGTGAGTACATACATACATATATAT [XGTACX_site8793]”, the “gcPBM binding intensity (ln)” value was 11.5 ± 0.72.

On to “TATACCTATAGACACACACACATAAATAGATATATA [CACACA_site6748]”, for which the “gcPBM binding intensity (ln)” value came to 10.2 ± 0.33. The value for “TACACGCATAGACACACACACACACGCATATAAATA [CACACA_site6446]” was 10.3 ± 0.29; that for “TTTTTTTTTTTAAATAGTACACATATATATATATAT [XGTACX_site6983]” was 11.3 ± 0.85. On to “AAAAAAAAAAAAAAAAGTACAAAAAAAAAAAAAAAA [XGTACX_site4549]”, for which the “gcPBM binding intensity (ln)” value amounted to 11.3 ± 0.73. With “TTTGTTCTATGGAGTTTAAAATGTAATATATATTAA [GTGCAC_negctrl_site151]”, the “gcPBM binding intensity (ln)” value is 9.85 ± 0.11.

For the sequence “ATATATATTAATAGTTGTACTATTATAATATTACAA [XGTACX_site1213]”, the “gcPBM binding intensity (ln)” value came to 11.1 ± 0.79. The figure for “ATCCTGAACAGAATATGTATAAACAGAAGGAAACAA [CACACA_negctrl_site1805]” is 10.1 ± 0.17; for “TTTTTTTTTTTTTTGTCACACACCTTCATAAGAAAA [CACACA_site1166]” it is 10 ± 0.52. Regarding “CACACCATATAATATATATATATGTATATATTTATA [CACACA_negctrl_site397]”, the “gcPBM binding intensity (ln)” value stood at 9.79 ± 0.099. As to “TAAAAGGAACAAAATTGTACTTAAAAGACAAAGTTA [XGTACX_site7661]”, the “gcPBM binding intensity (ln)” value came to 11 ± 0.63. The figure for “ACACAAAAATAAAAATGTACAAATTAAAAAAAATGA [XGTACX_site2083]” is 10.8 ± 0.42; for “ATATATATATATATATATATATATATATTTATATAT [GTGCAC_negctrl_site180]” it is 9.65 ± 0.31; for “CTTTGTAGTTGGTCCACACACATATATGGAAGAATA [CACACA_site1280]” it is 11.4 ± 0.91. The figure for “TAATAATAGAGACACACACACATTTTTAATAATACA [CACACA_site6691]” is 10.1 ± 0.092. Consider “TATAAAATATATATCTGTACGTATTTTATTTTTTAT [XGTACX_site6257]”, for which the “gcPBM binding intensity (ln)” value is 11.4 ± 0.88. The figure for “TATAAGCAAAGACACACACACATATAAATATAAATA [CACACA_site7740]” is 10 ± 0.11; for “ATGTAGATAGATAGGGTGCTAAAAATAAGATTTATA [GTGCAC_site9602]” it is 10.1 ± 0.26. As to “AAAAAAAAAAAAAAAACACACACAACACCCATACCT [CACACA_site9208]”, the “gcPBM binding intensity (ln)” value was determined as 10.5 ± 0.32. Take “AATACAATATAAAGGTGTACATATATATATATATAT [XGTACX_site68]”: the “gcPBM binding intensity (ln)” value was 11.4 ± 0.9. The figure for “TATATAATTATTTGATGTACACTACAATGTATTTGT [XGTACX_site7991]” is 11.4 ± 0.85; for “TTATGTTCTTAATGCACACTTATAAGTATCTTATAA [CACACA_site1394]” it is 10.7 ± 0.37.

Turning to “TACAAAATATTTTACACACACATATAAATACCTATA [CACACA_site7272]”, the “gcPBM binding intensity (ln)” value came out at 10.2 ± 0.11. The figure for TATATATATATATGAGTGCATATGTGTAATATAAAA is 10.3 ± 0.21; for “ATTATTGTAATATTAGCACACATTACCTCACTACAA [CACACA_site2560]” it is 10.2 ± 0.21; for “ATTGTAAGGAAACACACACACATATATATGTATATA [CACACA_site676]” it is 10.06 ± 0.057. The value for “TATATGTTTAATTTCACACACAAATATGCATTTTAA [CACACA_site7881]” was 9.98 ± 0.014; that for “AAATAAATACTAGGCACACACACATATATATATATA [CACACA_site2079]” was 10.2 ± 0.2. In the case of “CGCACCCAAATATATACACACATATATATATATATA [CACACA_site1651]”, the “gcPBM binding intensity (ln)” value was found to be 10.1 ± 0.23. The value for “ATATATATATATATATGTACGTATAATATATATATG [XGTACX_site2212]” was 11.5 ± 0.85. Regarding “ATTATTCAGGTAAAGTGTACAGGAGAAAAATAAAAT [XGTACX_site334]”, the “gcPBM binding intensity (ln)” value was 11.4 ± 0.72.

As to “AATAGGGTCATTCAAAAAAAAAAAAAATAATAATAC [CACACA_negctrl_site644]”, the “gcPBM binding intensity (ln)” value is 10.1 ± 0.29. The figure for “GGAAAATGAAAACAAGGTACACATAAGAACAAACAA [XGTACX_site1221]” is 11.4 ± 0.87; for “AAATCACATAAAAATAGTACTTTTTTTTTTTTTTTT [XGTACX_site2696]” it is 11.2 ± 0.7; for “TGTTTTTATCCTTATGGTACAGTATAATACTTACAG [XGTACX_site6381]” it is 10.9 ± 0.57.

For the sequence AAATTTGCTTTACCAGTGCAAAAAAAAAAAAAAAAA, the “gcPBM binding intensity (ln)” value was 9.96 ± 0.53. The figure for “TATTTTGTTCTTTCCACACACAAATACATATATTGT [CACACA_site4071]” is 10.3 ± 0.24; for “TAATACATACACACATGTACATACAGAAATAAATAA [XGTACX_site3245]” it is 11.2 ± 0.81; for “AATTATTAAATATGTACACACGTACATTTTATAAAT [CACACA_site5341]” it is 11.6 ± 1.
